Assay results: article PMC7856678 (Bioorganic & medicinal chemistry, 2021)

How the values were obtained:
Cytotoxicity = format: cell-based; details: dog, CD4-negative Cf2Th-CCR5 cells
[1] = system: CD4-dependent HIV-1ADA in CD4-negative Cf2Th-CCR5 cells; details: cited from earlier work

NC[C@H](NC(=O)c1ccc(-c2ccc(C(F)(F)F)cc2F)[nH]1)c1nc(CCO)cs1 [Compound 13, N-(2-Amino-1-(4-(2-hydroxyethyl)thiazol-2-yl)ethyl)-5-(2-fluoro-4-(trifluoromethyl)phenyl)-1H-pyrrole-2-carboxamide]
CC50 at 48 h (Cytotoxicity): 31.2 ± 1.4 µM

NBD-556
HIV-1 infection in CD4−-CCR5+ cells (entry agonist property) [1]: enhance HIV-1 infection
